Measured values taken from PubChem BioAssay (NCI).
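The compound was tested at five concentrations on cells cultured in 96-well plates, with a 48-hour exposure period. GI50: concentration for 50% inhibition of growth.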 For part of its entries the source gives two or more results. They are shown here; other results are not. An entry can have further records. For part of these data: A record mostly stands for its own series of concentrations, which the source does not state; some values may only mark the edge of a range. For part of these data: Results that share an entry are repeated measurements across runs, samples, wells, individuals or studies. Records carry a tag for their origin. A, B and so on number the origins entry by entry.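 TGI: concentration producing complete growth inhibition.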

Experiments:
Assay in all cases: NCI tumour cell line growth inhibition, 48 h
COLO 205 colon = system: COLO 205 colon
MOLT-4 leukemia = system: MOLT-4 leukemia
SF-295 CNS = system: SF-295 CNS
BT-549 breast = system: BT-549 breast
NCI/ADR-RES ovarian = system: NCI/ADR-RES ovarian
HS 578T breast = system: HS 578T breast
T-47D breast = system: T-47D breast
HOP-62 NSCLC = system: HOP-62 NSCLC
OVCAR-8 ovarian = system: OVCAR-8 ovarian
DU-145 prostate = system: DU-145 prostate
CCRF-CEM leukemia = system: CCRF-CEM leukemia
SF-268 CNS = system: SF-268 CNS
PC-3 prostate = system: PC-3 prostate
OVCAR-5 ovarian = system: OVCAR-5 ovarian
NCI-H460 lung = system: NCI-H460 lung
HCT-15 colon = system: HCT-15 colon
K-562 leukemia = system: K-562 leukemia
NCI-H522 lung = system: NCI-H522 lung
SK-OV-3 ovarian = system: SK-OV-3 ovarian
HOP-18 NSCLC = system: HOP-18 NSCLC
ACHN renal = system: ACHN renal
OVCAR-3 ovarian = system: OVCAR-3 ovarian
SK-MEL-2 melanoma = system: SK-MEL-2 melanoma
NCI-H23 lung = system: NCI-H23 lung
OVCAR-4 ovarian = system: OVCAR-4 ovarian
MDA-N = system: MDA-N
UACC-257 melanoma = system: UACC-257 melanoma
SK-MEL-28 melanoma = system: SK-MEL-28 melanoma
MCF7 breast = system: MCF7 breast
U251 CNS = system: U251 CNS
RPMI-8226 leukemia = system: RPMI-8226 leukemia
M14 melanoma = system: M14 melanoma
P388/ADR leukemia = system: P388/ADR leukemia
SN12C renal = system: SN12C renal
HCC-2998 colon = system: HCC-2998 colon
IGROV1 ovarian = system: IGROV1 ovarian
SF-539 CNS = system: SF-539 CNS
HL-60(TB) leukemia = system: HL-60(TB) leukemia
NCI-H226 lung = system: NCI-H226 lung
LOX IMVI melanoma = system: LOX IMVI melanoma
CAKI-1 renal = system: CAKI-1 renal
SNB-75 CNS = system: SNB-75 CNS
HT29 colon = system: HT29 colon
EKVX NSCLC = system: EKVX NSCLC
SNB-19 CNS = system: SNB-19 CNS
MALME-3M melanoma = system: MALME-3M melanoma

CC(C)C[C@H](NC(=O)[C@H](Cc1cccc2ccccc12)NC(=O)N1CCOCC1)B(O)O
TGI (COLO 205 colon): 60.9 nM and > 100 µM
TGI (MOLT-4 leukemia): 8.26 nM and > 100 µM
TGI (SF-295 CNS): 13.3 nM and 2.47 µM
TGI (BT-549 breast): 4.31 nM and 1.77 µM

CN1CC[C@@H](c2c(O)cc(O)c3c(=O)cc(-c4ccccc4Cl)oc23)[C@@H](O)C1
TGI (NCI/ADR-RES ovarian): 620 nM [1 test] and > 18.9 µM [mean of 3 tests]
TGI (HS 578T breast): 295 nM, 438 nM [1 test] and > 100 µM [mean of 3 tests]
TGI (T-47D breast): 246 nM, 513 nM [1 test] and > 100 µM [mean of 4 tests]
TGI (HOP-62 NSCLC): 308 nM, 295 nM, > 22.4 µM
TGI (OVCAR-8 ovarian): 320 nM and > 46.7 µM
TGI (DU-145 prostate): 567 nM and > 41.2 µM
TGI (CCRF-CEM leukemia): 231 nM [1 test] and 7.58 µM [mean of 6 tests]
TGI (SF-268 CNS): 331 nM, 472 nM, 10.2 µM
TGI (PC-3 prostate): 219 nM, 260 nM, 5.4 µM
TGI (OVCAR-5 ovarian): 298 nM, 470 nM, 3.1 µM
TGI (NCI-H460 lung): 333 nM and 32.5 µM
TGI (HCT-15 colon): 585 nM and > 47.1 µM
TGI (K-562 leukemia): 746 nM [1 test] and > 75.1 µM [mean of 6 tests]
TGI (SF-295 CNS): 300 nM, 343 nM [1 test] and 14.6 µM [mean of 6 tests]
TGI (BT-549 breast): 529 nM, 846 nM, > 11.8 µM

C[C@@H]1C[C@@H](O)[C@]2(O)O[C@@H]3C[C@@]4(C=O)[C@@H](CC[C@@H]5[C@@H]4CC[C@]4(C)[C@@H](C6=CC(=O)OC6)CC[C@]54O)C[C@H]3O[C@@H]2O1
TGI (NCI-H522 lung): 4.16 nM and 106 nM
TGI (SK-OV-3 ovarian): 40.4 nM, 845 nM, 51.1 nM
TGI (HOP-18 NSCLC): 30.3 nM and 2.07 µM
TGI (ACHN renal): 55.8 nM, 112 nM, 6.01 nM
TGI (OVCAR-3 ovarian): 4.77 nM and 52.8 nM
TGI (SK-MEL-2 melanoma): 27.4 nM, 226 nM, 500 nM
TGI (MOLT-4 leukemia): 9.8 nM, 33.5 nM, 1.69 µM
TGI (NCI-H23 lung): 10.8 nM, 130 nM, 7.29 nM

N#Cc1cn(C2OC(CO)C(O)C2O)c2ncnc(N)c12 (centres undefined)
TGI (NCI-H522 lung): 0.13 nM [sample A, 1 test] and 83.9 nM, 6.6 µM [sample A, mean of 4 tests] and 1.22 µM [sample B, 1 test]
TGI (NCI/ADR-RES ovarian): 2.3 nM [1 test] and 3.78 µM, 131 nM [mean of 4 tests]
TGI (OVCAR-4 ovarian): 942 nM [sample A, mean of 5 tests] and 59.6 nM [sample B, 1 test]
TGI (MDA-N): 1.05 nM [sample A, 1 test] and > 100 µM [sample B, 1 test]
GI50 (UACC-257 melanoma): 0.108 nM [1 test] and 53.8 nM [mean of 3 tests]
TGI (UACC-257 melanoma): 170 nM, 2.67 µM, 369 nM [sample A] and > 100 µM [sample B]
TGI (SK-MEL-28 melanoma): 155 nM [sample A, 1 test] and 5.43 µM [sample A, mean of 4 tests] and 963 nM [sample A, mean of 5 tests] and 18.1 µM [sample B, 1 test]
TGI (MCF7 breast): 1.92 µM, > 450 µM [sample A, mean of 3 tests] and > 100 µM [sample B, mean of 2 tests]
TGI (SK-OV-3 ovarian): 420 nM, 74.5 µM [sample A] and > 100 µM [sample B]
TGI (HOP-62 NSCLC): 0.582 nM [sample A, 1 test] and 1.41 µM, 696 nM [sample A, mean of 4 tests] and > 100 µM [sample B, 1 test]
TGI (U251 CNS): 49.5 nM [sample A, 1 test] and > 380 µM [sample A, mean of 5 tests] and > 100 µM [sample B, 1 test]
TGI (RPMI-8226 leukemia): 1.44 µM [sample A, mean of 3 tests] and 598 nM [sample A, mean of 5 tests] and > 100 µM [sample B, mean of 2 tests]
GI50 (M14 melanoma): 0.178 nM [sample A, 1 test] and 18.5 nM [sample B, 1 test]
TGI (P388/ADR leukemia): > 450 µM [mean of 2 tests] and 45 nM [mean of 3 tests]
TGI (SN12C renal): 80.2 nM [sample A, 1 test] and > 38.4 µM [sample A, mean of 3 tests] and 5.42 µM [sample A, mean of 5 tests] and > 100 µM [sample B, mean of 2 tests]
TGI (DU-145 prostate): 0.488 nM [sample A] and > 100 µM [sample B]
TGI (HOP-18 NSCLC): 1.59 µM and 135 nM
TGI (HCC-2998 colon): 0.553 nM [sample A, 1 test] and 934 nM [sample A, mean of 2 tests] and 813 nM [sample A, mean of 5 tests] and 653 nM [sample B, mean of 2 tests]
TGI (IGROV1 ovarian): 1.21 µM, 144 nM [sample A] and > 100 µM [sample B]
TGI (SF-539 CNS): 19 nM, 5.92 µM, 4.76 µM [sample A] and 6.35 µM [sample B]
TGI (HL-60(TB) leukemia): 703 nM, 51.9 nM, 969 nM [sample A] and 34.1 nM [sample B]
GI50 (NCI-H226 lung): 0.157 nM [1 test] and 53.3 nM [mean of 3 tests]
TGI (NCI-H226 lung): 1.51 µM, 811 nM [sample A] and > 100 µM [sample B]
TGI (COLO 205 colon): 67.2 nM, < 45 nM [sample A] and 10.6 µM [sample B]
TGI (SF-268 CNS): 12.8 nM [sample A, 1 test] and 53.6 µM [sample A, mean of 3 tests] and > 100 µM [sample B, 1 test]
TGI (OVCAR-3 ovarian): 0.884 nM, 110 nM, 390 nM [sample A] and > 100 µM [sample B]
TGI (LOX IMVI melanoma): 3.63 µM, < 45 nM [sample A] and > 100 µM [sample B]
TGI (SK-MEL-2 melanoma): 0.235 nM, 142 nM, 107 nM [sample A] and 81.1 nM [sample B]
TGI (OVCAR-5 ovarian): 0.887 nM, 379 nM, 310 nM [sample A] and > 100 µM [sample B]
TGI (NCI-H460 lung): 4.5 nM [sample A, 1 test] and > 312 µM [sample A, mean of 4 tests] and 5.8 µM [sample A, mean of 5 tests] and > 100 µM [sample B, mean of 2 tests]
TGI (CAKI-1 renal): 91.2 nM [sample A, mean of 3 tests] and 1.1 µM [sample A, mean of 4 tests] and 548 nM [sample B, 1 test]
TGI (MOLT-4 leukemia): 186 nM, 2.72 µM [sample A] and 267 nM [sample B]
TGI (HCT-15 colon): 0.768 nM [1 test] and 6.15 µM [mean of 5 tests]
TGI (SNB-75 CNS): 1.39 nM [sample A, 1 test] and 108 nM [sample A, mean of 4 tests] and 1.24 µM [sample A, mean of 5 tests] and > 100 µM [sample B, mean of 2 tests]
TGI (K-562 leukemia): 0.21 nM [sample A, 1 test] and 637 nM [sample A, mean of 3 tests] and 432 nM [sample A, mean of 5 tests] and > 100 µM [sample B, 1 test]
TGI (HT29 colon): 106 nM [sample A, 1 test] and > 20.9 µM [sample A, mean of 3 tests] and > 100 µM [sample B, 1 test]
TGI (SF-295 CNS): 10.5 nM [sample A, 1 test] and 1.4 µM [sample A, mean of 4 tests] and 4.74 µM [sample A, mean of 5 tests] and 26.9 µM [sample B, mean of 2 tests]
TGI (EKVX NSCLC): 2.84 µM, 1.02 µM [sample A] and > 100 µM [sample B]
TGI (NCI-H23 lung): 0.62 nM [sample A, 1 test] and 459 nM [sample A, mean of 4 tests] and 819 nM [sample A, mean of 5 tests] and 576 nM [sample B, mean of 2 tests]
TGI (SNB-19 CNS): > 288 µM [sample A, mean of 4 tests] and 6.42 µM [sample A, mean of 5 tests] and > 100 µM [sample B, mean of 2 tests]
TGI (BT-549 breast): 2.47 nM [sample A] and > 100 µM [sample B]
TGI (MALME-3M melanoma): 606 nM, 176 nM [sample A] and > 100 µM [sample B]
